From PubChem BioAssay AID1347044 (National Center for Advancing Translational Sciences (NCATS), 2019)
The other results are listed elsewhere or left out. Shown are side measurements of this screen, not its main read-out; they come without a call. The list favours compounds with an active or inconclusive main result. Words in brackets tell the shape of the fitted curve; partial curves, single points and poor fits give uncertain potencies.
Tags describe the fitted curve by direction and shape.

Assay: Natriuretic polypeptide receptor (hNpr1) antagonism - Confirmation; further: nearly all actives have a fitted effect of over 70% in size
Conditions: HEK293 hNpr1 cGMP GloSensor luminescence, ANP-stimulated; measured here: HEK-hNpr1 cytotoxicity, CellTiter-Glo
Method in brief: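 Compound (30 min, room temperature) preceded stimulation with hNppA peptide at 0.1 nM final for 20 min. Cells were HEK293 carrying hNpr1 plus GloSensor pGS-40F cGMP biosensor, pre-equilibrated 2 h with 2% substrate; cGMP was followed as luminescence pre- and post-agonist.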
With `COc1ccc(C(=O)N2CCC3(CC2)N=C(c2ccc(Br)cc2)NO3)cc1` the CC50 was 19.3 µM [falling, partial curve]. For `CC(C)(Oc1nn(Cc2cccc(Cl)c2)c2ccccc12)C(=O)NCCc1cnc[nH]1`, the CC50 was 35.3 µM [falling, partial curve]. With `CC(=O)N1CCc2cc(S(=O)(=O)CCC(=O)N3CCC(CCOc4ccccc4)C3)ccc21` (configuration not stated) the CC50 was 24.3 µM [falling, partial curve]. For `COc1ccc(OC)c(CN2CCCn3nc(C)c(-c4ccccc4OCc4ccccc4)c32)c1`, the CC50 was 21.7 µM [falling, partial curve]. With `CC(C)OC(=O)N1CCC(COc2ccc3c(cnn3CC[S+](C)(=O)[O-])c2)CC1` the CC50 was 25 µM [falling, partial curve]. In the case of `CN(C(=O)c1ccc2c(c1)NC(C)(COc1cccnc1)CO2)c1ccccc1` (configuration not stated), the CC50 is reported as 7.89 µM [falling, full curve]. For `CC(C)c1ccc(NC(=O)c2cc3n(n2)CC(c2ccc(Cl)cc2)OC3)cc1` (configuration not stated), the CC50 was 15.3 µM [falling, partial curve]. In the case of `CC1=NS(=O)(=O)N(C)C=C1C(=O)OCc1nc(-c2ccc(Br)cc2)no1`, the CC50 is reported as 19.3 µM [falling, partial curve]. In the case of `CNC(=O)c1cccc(-c2cnc3[nH]cc(CC(=O)N(C)c4ccccc4)c3c2)c1`, the CC50 is reported as 35.3 µM [falling, partial curve]. For `O=C(c1ccc(F)cc1Cl)N1CCC(n2cc(-c3nc(C4CC4)no3)nn2)C1` (configuration not stated), the CC50 was 27.3 µM [falling, partial curve]. In the case of `CCCc1cc(C(=O)N(C)CCOc2ccccc2CC)n(C)n1`, the CC50 is reported as 17.2 µM [falling, partial curve]. For `COc1cccc(N2CCN(c3nc(C(=O)NCc4ccccc4F)cs3)CC2)c1`, the CC50 was 27.3 µM [falling, partial curve]. With `O=C(c1ccc(F)c(F)c1)N1CCC(n2cc(-c3nc(-c4ccccc4)no3)nn2)CC1` the CC50 was 21.7 µM [falling, partial curve]. In the case of `CCc1ccc(C(=O)N2CCC(Cc3nc(-c4ccc(F)cc4)no3)CC2)cc1`, the CC50 is reported as 3.43 µM [falling, partial curve]. With `COc1ccc(C(=O)Nc2ccc(-c3noc([C@@H]4CCCN4Cc4c[nH]c5ccccc45)n3)cn2)cc1` the CC50 was 15.3 µM [falling, partial curve]. For `O=C1CCN(Cc2ccc(C(F)(F)F)cc2)CCCC(c2nc(-c3cccnc3)no2)CCN1` (configuration not stated), the CC50 was 19.3 µM [falling, partial curve]. In the case of `O=C(Nc1ccc(Oc2ccccc2)cc1)O[C@@H]1CO[C@H]2[C@@H]1OC[C@@H]2NC(=O)c1ccc(C(F)(F)F)cc1`, the CC50 is reported as 9.68 µM [falling, partial curve].
